Laboratory results: PubChem BioAssay (NCATS)
Several values for one entry are separate records, joined by “and”; a condition that tells them apart may be missing. Identical values can stand only once. This is one part of the list. Further columns of the screen follow, without active or inactive calls. The list favours compounds with an active or inconclusive main result. Words in brackets tell the shape of the fitted curve; partial curves, single points and poor fits give uncertain potencies.

Target: Nicotinamide N-methyltransferase (Homo sapiens) (UniProt P40261)
Sequence of UniProt P40261 (P40261 whole entry, looked up): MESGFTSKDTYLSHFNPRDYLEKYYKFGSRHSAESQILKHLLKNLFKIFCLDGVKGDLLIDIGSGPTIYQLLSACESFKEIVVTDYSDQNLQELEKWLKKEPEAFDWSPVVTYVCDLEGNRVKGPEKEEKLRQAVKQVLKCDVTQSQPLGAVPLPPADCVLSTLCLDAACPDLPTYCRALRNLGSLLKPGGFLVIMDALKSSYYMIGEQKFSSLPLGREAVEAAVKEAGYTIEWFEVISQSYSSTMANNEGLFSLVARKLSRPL
Assay: Confirmatory Screen for Target Class Profiling of Small Molecule Inhibitors of Methyltransferases (AID 1745852);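 note: inhibitor potency for blocking SAH production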
Settings: MTase-Glo luminescence, SAH detection, recombinant enzyme; measured here: NNMT inhibition potency
Tags give direction and shape of the fitted curve.

SMILES	IC50
CC(C)N(C[C@H]1O[C@@H](n2cnc3c(N)ncnc32)[C@H](O)[C@@H]1O)C1CC(CCc2nc3ccc(C(C)(C)C)cc3[nH]2)C1 (stereo not given in full)	1.21 µM [falling, full curve] and 1.52 µM [falling, full curve]
c1ccc(Cn2c(-c3ccc(OCC(C4CCNCC4)n4c(-c5ccccc5)nc5ccccc54)cc3)nc3ccccc32)cc1 (stereo not given)	19.2 µM [falling, partial curve]
Nc1nc(NCC2CCC(CNS(=O)(=O)c3cccc4ccccc34)CC2)nc2ccccc12 (stereo not given)	24.1 µM [falling, partial curve, poor fit]
N#Cc1ccc(COC[C@H]2O[C@@H](n3c(NCc4ccc(Cl)c(Cl)c4)nc4c(N)ncnc43)[C@H](O)[C@@H]2O)cc1	6.63 µM [falling, partial curve]
CN(C)c1nc(NC2CCC(NCCc3ccc(Br)cc3OC(F)(F)F)CC2)nc2ccccc12 (stereo not given)	6.07 µM [falling, full curve]
Nc1nccc(Oc2ccc(NC(=O)c3c[nH]cc(-c4ccc(F)cc4)c3=O)cc2F)c1Cl	6.07 µM [falling, full curve]
Fc1ccc2[nH]ccc2c1-c1nc(N2CCOCC2)c2sc(CN3CCN(CC4CC4)CC3)cc2n1	19.2 µM [falling, partial curve]
C=CC(=O)Nc1cccc(Nc2nc(Nc3ccc(Oc4ccnc(C(=O)NC)c4)cc3)ncc2F)c1	10.8 µM [falling, partial curve]
Oc1cccc(Nc2ccnc3[nH]c4ccccc4c23)c1	13.6 µM [falling, partial curve]
N#Cc1cnc2c(Cl)cc(NCc3cn(CCN4CCCCCC4)nn3)cc2c1Nc1ccc(F)c(Cl)c1	21.5 µM [falling, partial curve, poor fit]
CCOc1ccccc1CN1CCC(Cc2nc(-c3cccnc3)n[nH]2)C1 (stereo not given)	17.1 µM [falling, partial curve]
NCCCNc1ccc(Nc2nccc(Nc3cc(C4CC4)[nH]n3)n2)cc1	24.1 µM [falling, partial curve]
COc1cc2nc(N3CCN(C(=O)c4ccco4)C4CCCCC43)nc(N)c2cc1OC (stereo not given)	24.1 µM [falling, single point]
NC(N)=N/N=C/c1c(Cl)cccc1Cl	15.3 µM [falling, partial curve]
Nc1ncnc2c1c(-c1cccc(OCc3ccccc3)c1)cn2C1CC(CN2CCC2)C1 (stereo not given)	24.1 µM [falling, partial curve, poor fit]
Cc1cc(O)c(-c2ccc([C@@H](C)CN(C)C)cc2)c2c1[nH]c(=O)c1sccc12	17.1 µM [falling, partial curve]
CCNC(=O)C#Cc1ccc2c(C(=Nc3ccc(CN(C)C)cc3)c3ccccc3)c(O)[nH]c2c1	10.5 µM [falling, partial curve]
CC[C@@H]1C(=O)N(C)c2cnc(Nc3ccc(C(=O)NC4CCN(C)CC4)cc3OC)nc2N1C1CCCC1	21.7 µM [falling, partial curve]
CCS(=O)(=O)c1cccc(-c2cc(C(=O)NC3CCN(C)CC3)c(C)c3[nH]c4ncc(C)cc4c23)c1	13.3 µM [falling, partial curve] and 21.7 µM [falling, partial curve]
CNC1CCC(N(Cc2cccc(-c3ccncc3)c2)C(=O)c2sc3ccccc3c2Cl)CC1 (stereo not given)	19.2 µM [falling, partial curve]

SMILES	IC50
Cc1cc(-c2nc3ccncc3[nH]2)c(C)[nH]1	49.4 µM [falling, partial curve, poor fit]
CC(C)CNc1ccnc(NCc2csc(-c3ccccc3)n2)n1	24.1 µM [falling, partial curve]
CCCCNc1ncc(C(=O)NCc2ccc(-n3ccnc3)cc2)c(NC2CCC(O)CC2)n1 (stereo not given)	19.2 µM [falling, partial curve]
Cc1ccccc1Sc1ccc(/C=C2\SC(=S)NC2=O)cc1[N+](=O)[O-]	24.1 µM [falling, partial curve]
CCCC[C@@]1(C2CCCC2)Cc2cc(OCC(=O)O)c(Cl)c(Cl)c2C1=O	19.3 µM [falling, partial curve]
CN1CCN(CCOc2cc(OC3CCOCC3)c3c(Nc4c(Cl)ccc5c4OCO5)ncnc3c2)CC1	24.1 µM [falling, single point]
COc1cc2c(cc1OC)CN(CCc1ccc(NC(=O)c3cccc4c(=O)c5cccc(OC)c5[nH]c34)cc1)CC2	1.52 µM [falling, full curve]
Cc1cnc(Nc2ccc(OCCN3CCCC3)cc2)nc1Nc1cccc(S(=O)(=O)NC(C)(C)C)c1	21.5 µM [falling, partial curve]
CCn1cc(-c2ccnc3[nH]c(-c4cccc(CN(C)C)c4)cc23)c(-c2ccc(NC(=O)N(C)C)cc2)n1	24.3 µM [falling, partial curve]
CCn1c2ccccc2c2cc(Nc3ccnc(NCCCN4CCOCC4)n3)ccc21	21.5 µM [falling, partial curve]
CNCCN(C)Cc1cn[nH]c1-c1ccc(OC2CC(OCCC3CCOCC3)C2)cc1 (stereo not given)	0.0153 µM [rising, full curve, poor fit]
CCN1CCC[C@@H]1CNC(=O)c1ccc2c(c1)NC(=O)/C(=C/c1ccccc1F)S2	24.1 µM [falling, single point]
Nc1ncnc2c1c(-c1ccc(Oc3ccccc3)cc1)nn2[C@@H]1CCCNC1	21.5 µM [falling, partial curve]
NC(=O)c1cnc(-c2ccc(C3(N)CCC3)cc2)c(-c2ccccc2)c1	21.5 µM [falling, partial curve]
C=CC(=O)Nc1cccc(Oc2nc(Nc3ccc(N4CCN(C)CC4)cc3)ncc2Cl)c1	21.5 µM [falling, partial curve]
CCCc1cc2c(N3CCN(C4=NCC(C)(C)S4)CC3)ncnc2s1	7.64 µM [falling, partial curve]
COc1cc(N2CCC(N)CC2)ccc1Nc1ncc(Cl)c(-c2c[nH]c3ccccc23)n1	24.1 µM [falling, partial curve]
N#C/C(=C1\Nc2ccccc2S1)c1ccnc(NCCc2cccnc2)n1	12.1 µM [falling, partial curve]
COc1ccc(N(C(=O)Nc2c(C)cccc2C)c2cc(Nc3ccc(N4CCN(C)CC4)cc3)ncn2)c(OC)c1	21.5 µM [falling, partial curve]
Cc1c[nH]c2ncnc(N3CCC(CN)(C(=O)Nc4cccc(OC(=O)N(C)C)c4)CC3)c12	49.4 µM [falling, partial curve]
